# According to PMC4336329 (PLoS ONE, 2015):
# Hit rate of the full screen: of about 310,000 compounds, about 14,000 (4.5%) showed an effect of 50% or more. The effect is printed as a negative number. The list shows a part of the results.
# Target: human ether-à-go-go-related gene (hERG) potassium channel (human, UniProt Q12809)
# Experiment: primary screen, population patch clamp on CHO cells stably expressing hERG
# 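Further: peak tail current of the secondary pulse compared with the same well before compound.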
# human ether-à-go-go-related gene (hERG) potassium channel, sequence (Q12809 whole entry, looked up): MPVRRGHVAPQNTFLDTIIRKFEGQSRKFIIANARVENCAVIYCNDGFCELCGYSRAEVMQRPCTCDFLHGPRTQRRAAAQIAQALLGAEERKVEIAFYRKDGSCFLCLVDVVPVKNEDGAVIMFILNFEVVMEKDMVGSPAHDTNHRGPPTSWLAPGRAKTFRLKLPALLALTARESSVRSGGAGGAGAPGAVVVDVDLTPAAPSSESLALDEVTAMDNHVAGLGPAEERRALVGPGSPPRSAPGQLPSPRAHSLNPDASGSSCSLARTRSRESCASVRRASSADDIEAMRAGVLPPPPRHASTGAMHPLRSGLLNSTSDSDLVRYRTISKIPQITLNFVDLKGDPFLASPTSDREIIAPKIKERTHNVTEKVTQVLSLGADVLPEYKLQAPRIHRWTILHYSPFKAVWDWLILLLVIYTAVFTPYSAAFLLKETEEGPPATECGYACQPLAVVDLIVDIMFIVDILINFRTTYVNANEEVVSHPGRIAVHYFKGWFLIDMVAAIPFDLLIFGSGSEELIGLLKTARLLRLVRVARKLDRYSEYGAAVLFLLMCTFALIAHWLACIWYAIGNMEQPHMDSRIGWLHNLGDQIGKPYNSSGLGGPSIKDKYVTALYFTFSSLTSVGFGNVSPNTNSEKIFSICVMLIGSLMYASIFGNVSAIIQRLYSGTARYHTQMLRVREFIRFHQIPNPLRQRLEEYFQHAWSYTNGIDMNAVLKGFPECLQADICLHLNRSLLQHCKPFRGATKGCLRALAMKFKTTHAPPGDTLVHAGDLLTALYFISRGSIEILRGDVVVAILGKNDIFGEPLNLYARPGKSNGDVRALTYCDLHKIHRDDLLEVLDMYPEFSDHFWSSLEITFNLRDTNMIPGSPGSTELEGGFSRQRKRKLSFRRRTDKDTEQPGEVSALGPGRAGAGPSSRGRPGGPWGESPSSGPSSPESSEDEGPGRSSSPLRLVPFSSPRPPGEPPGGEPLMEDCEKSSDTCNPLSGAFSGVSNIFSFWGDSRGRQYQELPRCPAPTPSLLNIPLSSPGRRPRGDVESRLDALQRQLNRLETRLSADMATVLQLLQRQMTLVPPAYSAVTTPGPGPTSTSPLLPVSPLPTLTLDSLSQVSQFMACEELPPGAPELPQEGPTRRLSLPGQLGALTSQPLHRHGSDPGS
row,Structure (SMILES),"hERG current change (%, negative = inhibition) at 10uM [%]"
1,CCCCN1C(=O)C(NC(=O)c2cccnc2)(C(F)(F)F)C2=C1CC(C)(C)CC2=O (stereo not drawn),1.83
2,N#Cc1c(Nc2ccccc2)sc(C(=O)c2ccccc2)c1N,-7.02
3,NC(=S)NN=C(Cc1ccccc1)Cc1ccccc1,3.69
4,COc1cccc(/C=C2/C(=O)NN(c3ccc(C)c(C)c3)C2=O)c1,-3.01
5,Cc1cccc(CCNC(=O)C2CCC(=O)N2Cc2ccc(F)cc2)c1 (stereo not drawn),-6.99
6,Cc1nnsc1C(=O)Nc1ccccc1Cl,-3.48
7,NS(=O)(=O)c1ccc(NC(=O)CSC2CCCCC2)cc1,3.4
8,O=C(COC(=O)CNC(=O)c1ccco1)NCCN1C(=O)CSC1=O,2.59
9,CCCS(=O)(=O)N1CCN(c2cc3c(cc2[N+](=O)[O-])n(C)c(=O)n3C)CC1,-11.1
10,COc1ccc2cc(C(=O)OC(C)C)sc(=O)c2c1OC,2.45
11,CCOC(=O)N1CCN(C(=O)c2cc(COc3ccc(OC)cc3Cl)on2)CC1,-15.5
12,Cc1cc(C)cc(NC(=O)CS(=O)(=O)c2ccccc2)c1,1.03
13,COc1ccc(NC(=O)CN2C(=O)CSC(C)C2=O)cc1 (stereo not drawn),5.78
14,COc1ccc(NCc2cc3cc(OC)ccc3[nH]c2=O)cc1,-16.2
15,O=C(NNC(=O)c1cccc(Br)c1)C(=O)N1CCCCC1,-0.807
16,CC(=O)NC1=NN(C(C)=O)C(c2sccc2C)S1 (stereo not drawn),15.7
17,Cc1oc2ccc(OCc3ccc(F)cc3Cl)cc2c1C(=O)O,12.1
18,COc1cccc(C(=O)OC(C)CN2CCCC2)c1.Cl (stereo not drawn),1.11
19,CCOC(=O)[C@@H]1[C@H]2COc3ccccc3[C@H]2N2C(=O)N(c3cccc(F)c3)C(=O)[C@]12C,-12.5
20,Cc1ccc(Nc2nc3ccccc3s2)cc1,-6.1
21,Cc1cccc(NC(=O)c2c(C)nc3ccccn23)c1,-0.935
22,O[C@@H]1C2CCCC1[C@]1(O)CCCCC1C2 (stereo partly drawn),8.35
23,COc1ccc(S(=O)(=O)N2CCCCCC2)cc1NC(=O)Cc1ccccc1,-35.7

row,Structure (SMILES),"hERG current change (%, negative = inhibition) at 10uM [%]"
1,Cc1cc(=O)[nH]c(SCc2cccc(Br)c2)n1,8.5
2,COc1ccc(Cl)cc1CN1CCOCC1.Cl,24.5
3,CCCCN(c1ccccc1)c1ncnc(N)c1[N+](=O)[O-],8.04
4,O=C(Nc1ccc(C(=O)N2CCN(c3ccc(F)cc3)CC2)cc1)C1=CSCCO1,-38.1
5,O=S(=O)(/N=C(/Nc1cccc2ccccc12)c1ccccc1)c1ccc(Br)cc1,20.3
6,CCOC(=O)c1cnn(-c2ccc(C(C)C)cc2)c1NC(=O)C1CCC1,10.6
7,CC1(C)CC2CC(C)(CN2/C=C2/CCCCC2=O)C1 (stereo not drawn),0.696
8,COc1cc(C#Cc2c(-c3ccccc3OC)oc3ccccc23)cc(OC)c1,10.7
9,CN(C)c1ccc(NC(=O)COC(=O)c2cc(Cl)ccc2[N+](=O)[O-])cc1,-3.65
10,Cc1cc(/C=C(\C#N)C(=O)NCc2ccco2)c(C)[nH]1,-2.85
11,Cn1c(=O)cc(OCC(=O)NCc2cccs2)c2ccccc21,-10.6
12,Cc1cc(C)c(NC(=S)NCC2CCN(C(C)c3ccccc3)C2)c(C)c1 (stereo not drawn),-22.4
13,CCSC(=O)NC12CC3CC(CC(C3)C1)C2,6.27
14,Cc1cc(Cl)ccc1C(=O)C1CCCN(Cc2ccon2)C1 (stereo not drawn),0.321
15,CS(=O)(=O)N(CC(=O)N1CCCC1)c1cccc(F)c1,19.7
16,O=C(O)c1cc(S(=O)(=O)N(Cc2ccccc2)c2ccc(Cl)cc2)ccc1Cl,20.8
17,COc1ccc(C2C(=O)c3ccccc3C2=O)cc1OC,7.85
18,CC(/C=N/NC(=O)Cn1nnc(N)n1)=C\c1ccc(C(C)C)cc1,7.36
19,CNC(=S)NNc1nc(N2CCOCC2)nc(N2CCOCC2)n1,14.9
20,COc1ccc(NC(=O)CN2C(=O)C(C)Oc3ccc(C)cc32)cc1 (stereo not drawn),3.11
21,O=C(Nc1ccccc1Cl)O/N=C(/c1ccccc1)c1ccccn1,6.47
22,CC(C)=NNC1=NC(C)(C)Cc2ccccc21,13.4
23,N/C(=C/C(=O)c1ccccc1O)C(F)(F)F,-0.151

row,Structure (SMILES),"hERG current change (%, negative = inhibition) at 10uM [%]"
1,O=S1(=O)N=C(N2CCN(Cc3ccccc3)CC2)c2ccccc21,-27.3
2,O=C(CSc1nn(-c2ccc(F)cc2)c(=S)s1)N1CCN(C(=O)c2ccco2)CC1,-75
3,Cc1cc(C)nc(SCc2nnc(SCC(=O)O)n2-c2ccccc2)n1,-27.1
4,CCC/C=C(\CCC)C(NC(=O)Cc1ccccc1)c1ccc(C(=O)OC)cc1 (stereo not drawn),-24.5
5,Cl.Fc1ccccc1C(c1nnnn1Cc1ccc2c(c1)OCO2)N1CCN(Cc2ccco2)CC1 (stereo not drawn),-56.4
6,CCSC1=N/C(=C\c2ccc(-c3ccccc3[N+](=O)[O-])o2)C(=O)S1,8.71
7,Cc1cc(SCc2ccccc2)nc(=O)[nH]1,19.5
8,COCCN(C)Cc1nc(C(c2ccccc2)c2ccccc2)no1,3.28
9,Cc1ccc(-n2c(-c3ccco3)nc3c(cnn3-c3ccccc3C)c2=O)cc1,15
10,CN(C(=O)C1CCN(S(=O)(=O)c2cccc3nonc23)CC1)C1CCCCC1,-12.2
11,CCOC(=O)N1CCN(CC(=O)Nc2nnc(C(F)(F)F)s2)CC1,27.4
12,COc1ccc(CN(C(=O)CSc2nnc(-c3c[nH]c4ccccc34)o2)c2ccc(F)cc2)cc1OC,-2.01
13,CCCCCCOC(=O)C(C#N)c1nc2ccccc2nc1N1CCN(CC)CC1 (stereo not drawn),-70.2
14,C(=N\n1cnc2ccccc21)/c1cccnc1,-11.5
15,CCN(CC)S(=O)(=O)c1ccc(N2CCCCC2)c(NC(=O)/C(C#N)=C/c2ccc(OC)cc2)c1,8.78
16,O=C(O)CC(Cc1ccc(Cl)cc1)C(=O)NCC12CC3CC(CC(C3)C1)C2 (stereo not drawn),16
17,NC(=O)C1CCN(c2nc(C3CC3)nc3c2nnn3Cc2ccccc2Cl)CC1,-3.71
18,Cc1cnc2cc([N+](=O)[O-])ccc2n1,5.75
19,CCN1CC(CN(C)Cc2cn(-c3cccc(C)c3)nc2-c2cccc(F)c2)CC1=O (stereo not drawn),-31.7
20,C[C@@H]1CN(Cc2nc(Cc3ccccc3F)no2)C[C@H](C)O1,13.2
21,Cc1cccc(NC2SC(=O)N(c3ccccc3)C2=O)c1 (stereo not drawn),-1.23
22,FC(F)(F)c1ccc(N2CCN(c3ncnc4c3nnn4Cc3ccccc3)CC2)nc1,-2.11
23,O=C(Nc1cccc(Cl)c1)c1nc[nH]c1C(=O)NCc1ccccc1,3.12

row,Structure (SMILES),"hERG current change (%, negative = inhibition) at 10uM [%]"
1,CC(C)Oc1cccc(C(=O)Nc2ccc(Br)cc2F)c1,7.79
2,O=C(O)CCc1ccc(NCc2cccc(Oc3ccccc3)c2)cc1,5.22
3,COc1ccc2c(c1)[nH]c1c(=O)n(/N=C/c3ccc(OC)c(COc4ccccn4)c3)cnc12,-9.63
4,CCN(CC(=O)Nc1cccc(S(=O)(=O)N2CCCCC2)c1)Cc1ccccc1,-25.4
5,CCn1cc(C(=O)N2CCN(c3ccc(F)cc3)CC2)c2cc(OC)c(OC)cc2c1=O,-69.5
6,Cc1ccc(C)c(NC(=O)COC(=O)CCCN=C2NS(=O)(=O)c3ccccc32)c1,4.55
7,CCN(CC)c1ccc(C2=NNC(=O)CC2C)cc1[N+](=O)[O-] (stereo not drawn),1.32
8,Cc1ccc(S(=O)(=O)NCCN=Cc2ccc(N(C)C)cc2)cc1,23.4
9,CC(C)OC(=O)c1cc2ccccc2[nH]1,-8.17
10,O=C(Nc1nncs1)C1CC(=O)N(CCc2ccc(F)cc2)C1 (stereo not drawn),27.1
11,COC(=O)C1=C(c2ccc(Cl)c(C(F)(F)F)c2)C[C@@H]2CC[C@H]1N2C(=O)N1CCC(C)CC1,10.1
12,Cc1ccc(N(CC2CO2)S(=O)(=O)c2ccccc2[N+](=O)[O-])cc1 (stereo not drawn),1.23
13,Cc1ccccc1CN1C2=NCCCN2c2ccccc21.Cl,-68
14,Cc1ccc(C(C)C)c(OCCn2c(=O)oc3ccccc32)c1,15.2
15,CC(C)CCC(C)NC(=O)C1CCN(S(=O)(=O)/C=C/c2ccccc2)CC1 (stereo not drawn),20.7
16,Cc1cccc(C)c1NC(=O)CSc1nc2ccccc2c(=O)[nH]1,3.46
17,COc1ccccc1Oc1ccccc1C(=O)O,0.941
18,O=C(NCC1CCCO1)c1cn(-c2ccccc2)nc1-c1ccccc1 (stereo not drawn),0.326
19,Cc1ccc(C)c(S(=O)(=O)NCC(=O)Nc2ccc3c(c2)OCO3)c1,3.55
20,CCC(C)Nc1c([N+](=O)[O-])cc(C)cc1[N+](=O)[O-] (stereo not drawn),11
21,CCN1C(=O)C(CC(=O)Nc2ccc(OC)cc2)N(CCN2CCOCC2)C1=S (stereo not drawn),-4.13
